Experimental findings from patent US20210246210A1 (JIANGSU ALPHAMAB BIOPHARMACEUTICALS, published 2021) are described below.

As usually defined, the EC50 is the midpoint of the concentration-response curve. Lower therefore signals an effect from little substance. The term EC50 (read off the curve) denotes the midpoint of the concentration-response curve. Higher therefore signals weaker potency.

The target of assay [1] is T1, CTLA4-muFc (human).
T1 construct: also called soluble human CTLA4
Description: ELISA, CTLA4-muFc coated, anti-human Fc-HRP detection (FIG. 2, Panel A).

Another assay addresses T2, PD-L1-huFc (human).
T2 construct: also called soluble PD-L1
Kind of assay: bridging ELISA: PD-L1-huFc coated, dimer titrated, bound dimer detected with CTLA4-muFc and HRP goat anti-mouse Fc, OD 450/650 nm [cont.) D].

For assay [2], the target named is T3, human PD-L1 on A375-hPD-L1 cells (human, UniProt Q9NZQ7).
T3 construct: whole, on cells
Kind of assay: flow cytometry, A375-hPD-L1 cells, MFI [cont.) G]. (In general: Flow cytometry measures light scatter and fluorescence of single cells or particles in a stream.)

Assay [3] deals with T4, human CTLA4 on HEK293-CTLA4 cells (human, UniProt P16410 36-223).
T4 construct: whole, on cells; also called cell-surface CTLA4
Kind of assay: flow cytometry, HEK293-CTLA4 cells, MFI [cont.) H].

Assay [4] has as its target T1, CTLA4-muFc. Description: ELISA, CTLA4-muFc coated, anti-human Fc-HRP detection (FIG. 2, Panel C). (An ELISA detects its analyte on a solid surface through an enzyme-linked reagent.)
A further assay addresses T5, PD-L1-muFc (human).
T5 construct: also called soluble human PD-L1
Kind of assay: ELISA, PD-L1-muFc coated, anti-human Fc-HRP detection (FIG. 2, Panel B).

T1 sequence (chain, as listed by the source limits assumed): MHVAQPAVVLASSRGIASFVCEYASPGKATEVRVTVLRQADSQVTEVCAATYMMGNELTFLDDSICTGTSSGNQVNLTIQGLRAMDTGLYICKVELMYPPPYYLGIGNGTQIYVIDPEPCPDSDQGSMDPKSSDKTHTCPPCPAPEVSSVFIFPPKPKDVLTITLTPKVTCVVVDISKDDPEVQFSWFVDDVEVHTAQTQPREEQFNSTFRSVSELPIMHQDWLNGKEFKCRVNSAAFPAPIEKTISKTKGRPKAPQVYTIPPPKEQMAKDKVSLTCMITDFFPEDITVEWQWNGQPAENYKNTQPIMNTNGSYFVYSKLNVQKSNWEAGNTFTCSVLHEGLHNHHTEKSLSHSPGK
Chain of PD-L1-huFc (chain, as listed by the source limits assumed): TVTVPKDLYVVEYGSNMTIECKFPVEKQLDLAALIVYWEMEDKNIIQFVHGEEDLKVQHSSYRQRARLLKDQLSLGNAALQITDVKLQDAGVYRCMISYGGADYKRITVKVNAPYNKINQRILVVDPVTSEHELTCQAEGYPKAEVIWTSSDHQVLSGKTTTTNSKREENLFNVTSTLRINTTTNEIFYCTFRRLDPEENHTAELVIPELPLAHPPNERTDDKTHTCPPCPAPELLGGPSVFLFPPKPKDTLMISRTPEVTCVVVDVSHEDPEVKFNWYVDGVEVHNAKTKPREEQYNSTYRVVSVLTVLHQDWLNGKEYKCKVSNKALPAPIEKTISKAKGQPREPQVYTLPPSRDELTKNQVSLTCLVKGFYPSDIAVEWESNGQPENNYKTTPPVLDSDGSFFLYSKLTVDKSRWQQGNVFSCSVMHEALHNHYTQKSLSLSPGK
T4 sequence (P16410 36-223): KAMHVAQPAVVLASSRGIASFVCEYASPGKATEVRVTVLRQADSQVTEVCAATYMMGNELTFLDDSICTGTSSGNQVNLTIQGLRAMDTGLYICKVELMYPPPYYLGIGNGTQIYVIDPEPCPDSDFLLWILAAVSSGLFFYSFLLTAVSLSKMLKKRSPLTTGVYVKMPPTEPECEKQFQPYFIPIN
T3 sequence (Q9NZQ7 19-290): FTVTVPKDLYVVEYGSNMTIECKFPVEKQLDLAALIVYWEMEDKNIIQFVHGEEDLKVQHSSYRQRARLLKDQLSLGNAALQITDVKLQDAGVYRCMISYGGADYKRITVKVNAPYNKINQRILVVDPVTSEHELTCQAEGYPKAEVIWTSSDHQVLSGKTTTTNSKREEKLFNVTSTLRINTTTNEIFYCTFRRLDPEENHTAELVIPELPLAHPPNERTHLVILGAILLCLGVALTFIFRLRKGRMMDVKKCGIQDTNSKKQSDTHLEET
Chain of PD-L1-muFc (chain, as listed by the source limits assumed): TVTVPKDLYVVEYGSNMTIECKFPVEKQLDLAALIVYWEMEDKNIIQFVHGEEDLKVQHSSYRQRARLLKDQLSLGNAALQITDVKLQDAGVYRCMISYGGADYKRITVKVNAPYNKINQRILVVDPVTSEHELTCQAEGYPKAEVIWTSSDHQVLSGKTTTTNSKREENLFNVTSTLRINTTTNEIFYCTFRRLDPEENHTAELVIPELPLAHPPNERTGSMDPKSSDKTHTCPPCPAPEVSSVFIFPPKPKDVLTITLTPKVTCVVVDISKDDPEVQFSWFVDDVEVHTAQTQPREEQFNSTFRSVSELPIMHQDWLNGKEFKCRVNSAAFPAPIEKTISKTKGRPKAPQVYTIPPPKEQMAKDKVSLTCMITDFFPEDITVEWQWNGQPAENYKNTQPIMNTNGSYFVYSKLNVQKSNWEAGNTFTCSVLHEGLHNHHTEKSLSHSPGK

B1: aCTLA4.34-L-aPDL1.9-Fc (bispecific antibody, human IgG1)
chain: QVQLVESGGGLVQPGGSLRLSCAASGYIYSAYCMGWFRQAPGKGLEGVAAIYIGGGSTYYADSVKGRFTISRDNSKNTLYLQMNSLRAEDTAVYYCAADVIPTETCLGGSWSGPFGYWGQGTLVTVSSGGGGSGGGGSGGGGSQVQLVESGGGLVQPGGSLRLSCAASGKMSSRRCMAWFRQAPGKERERVAKLLTTSGSTYLADSVKGRFTISRDNSKNTVYLQMNSLRAEDTAVYYCAADSFEDPTCTLVTSSGAFQYWGQGTLVTVSSGS[skipping human IgG1 Fc with changes]
notes: Dimer
B1: the EC50 in the assay with CTLA4-muFc [1] is about 0.04 mg/L. In addition, the “EC50 (read off the curve)” value with PD-L1-huFc was about 0.005 mg/L.

B2: aPDL1.9-L-aCTLA4.34-Fc (bispecific antibody, human IgG1)
chain: QVQLVESGGGLVQPGGSLRLSCAASGKMSSRRCMAWFRQAPGKERERVAKLLTTSGSTYLADSVKGRFTISRDNSKNTVYLQMNSLRAEDTAVYYCAADSFEDPTCTLVTSSGAFQYWGQGTLVTVSSGGGGSGGGGSGGGGSQVQLVESGGGLVQPGGSLRLSCAASGYIYSAYCMGWFRQAPGKGLEGVAAIYIGGGSTYYADSVKGRFTISRDNSKNTLYLQMNSLRAEDTAVYYCAADVIPTETCLGGSWSGPFGYWGQGTLVTVSSGS[skipping human IgG1 Fc with changes]
notes: Dimer
As for B2, the EC50 with CTLA4-muFc [1] is about 0.04 mg/L. The “EC50 (read off the curve)” value in the assay with PD-L1-huFc is about 0.005 mg/L.

B3: aCTLA4.34-aPDL1.9-Fc (bispecific antibody, human IgG1)
chain: QVQLVESGGGLVQPGGSLRLSCAASGYIYSAYCMGWFRQAPGKGLEGVAAIYIGGGSTYYADSVKGRFTISRDNSKNTLYLQMNSLRAEDTAVYYCAADVIPTETCLGGSWSGPFGYWGQGTLVTVSSGAPQVQLVESGGGLVQPGGSLRLSCAASGKMSSRRCMAWFRQAPGKERERVAKLLTTSGSTYLADSVKGRFTISRDNSKNTVYLQMNSLRAEDTAVYYCAADSFEDPTCTLVTSSGAFQYWGQGTLVTVSSGS[skipping human IgG1 Fc with changes]
notes: Dimer
As for B3, the EC50 with CTLA4-muFc [1] was about 0.04 mg/L. The “EC50 (read off the curve)” value with PD-L1-huFc was about 0.005 mg/L.

B4: aPDL1.9-aCTLA4.34-Fc (bispecific antibody, human IgG1)
chain: QVQLVESGGGLVQPGGSLRLSCAASGKMSSRRCMAWFRQAPGKERERVAKLLTTSGSTYLADSVKGRFTISRDNSKNTVYLQMNSLRAEDTAVYYCAADSFEDPTCTLVTSSGAFQYWGQGTLVTVSSGAPQVQLVESGGGLVQPGGSLRLSCAASGYIYSAYCMGWFRQAPGKGLEGVAAIYIGGGSTYYADSVKGRFTISRDNSKNTLYLQMNSLRAEDTAVYYCAADVIPTETCLGGSWSGPFGYWGQGTLVTVSSGS[skipping human IgG1 Fc with changes]
notes: Dimer of two chains expressed from one vector
B4: the concentration giving a half-maximal response (EC50 (read off the curve)) in assay [2] was about 0.2 nM; in assay [3], about 4 nM. Moreover, the figures for the EC50 in the assay with CTLA4-muFc [1], in the assay with CTLA4-muFc [4] and with PD-L1-muFc were about 0.04 mg/L, about 0.5 nM and about 0.6 nM, respectively.

B5: dAb-aCTLA4.34-Fc (Fc fusion)
chain: QVQLQESGGGSVQAGGSLRLSCEASGYTYCMGWFRQAPGKEREGVALAVTGISIPYYADSVKGRFTISQDNVKNTLYLQMNSLKPEDAAMYYCAASTIRYVCPGLNRGDQFKNWGQGTQVTVSSGAPQVQLVESGGGLVQPGGSLRLSCAASGYIYSAYCMGWFRQAPGKGLEGVAAIYIGGGSTYYADSVKGRFTISRDNSKNTLYLQMNSLRAEDTAVYYCAADVIPTETCLGGSWSGPFGYWGQGTLVTVSS[skipping human IgG1 Fc with changes]
As to B5, the “EC50 (read off the curve)” value in assay [3] is about 2 nM. Moreover, the concentration for a half-maximal effect (EC50) with CTLA4-muFc [4] is about 0.5 nM.
